From the supplement of paper PMC4967469
A lower IC50 marks a more sensitive line; a fit beyond the top or the lowest dose is shown as a bound at that dose. AUC, from the same fit, is the share of area under the viability curve across the 256-fold dose range: 1 means no effect, lower means more sensitive. Where the top dose is marked as inferred, it comes from the curve model; the source does not state it.

What follows are cell lines tested with CC1=C(C(=O)Nc2cc3cn[nH]c3cc2F)C(c2ccc(C(F)(F)F)cc2)CC(=O)N1 [GSK429286A] (assay: Viability of human cancer cell lines after 72 h of drug (GDSC screen)). Conditions: top dose inferred.
Method: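 Human cancer cell lines in 384-well plates, medium with 10% serum, drug for 72 h over a 256-fold dose range (nine 2-fold or five 4-fold steps up to the top dose). Adherent lines were fixed and stained with the nucleic acid dye Syto60, suspension lines read with resazurin; signal relative to control wells, capped at 0 and 100%. One two-parameter sigmoid per drug and line, fitted in a mixed model over all curves with the slope shared within a line.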
In the case of “BICR10 (head and neck, adherent, top dose 20 µM)”, the AUC is reported as 0.984 and the IC50 is reported as over 20 µM. Work on “G-401 (kidney, adherent, top dose 20 µM)” yielded an AUC of 0.899 and an IC50 of over 20 µM. Work on “OCUB-M (breast, adherent, top dose 20 µM)” yielded an AUC of 0.945 and an IC50 of over 20 µM. For “RERF-GC-1B (stomach, adherent, top dose 20 µM)”, the AUC was 0.96 and the IC50 was over 20 µM. Hey (ovary, adherent, top dose 20 µM) showed an AUC of 0.979 and an IC50 of over 20 µM. In the case of OVISE (ovary, adherent, top dose 20 µM), the AUC is reported as 0.975 and the IC50 is reported as over 20 µM. “RS4-11 (leukaemia, suspension, top dose 20 µM)” gave an AUC of 0.941 and an IC50 of over 20 µM. For “H2804 (mesothelioma, adherent, top dose 20 µM)”, the AUC was 0.965 and the IC50 was over 20 µM. In the case of “GT3TKB (stomach, adherent, top dose 20 µM)”, the AUC is reported as 0.985 and the IC50 is reported as over 20 µM. In the case of “Hs-578-T (breast, adherent, top dose 20 µM)”, the AUC is reported as 0.983 and the IC50 is reported as over 20 µM. For “SK-MEL-3 (melanoma, adherent, top dose 20 µM)”, the AUC was 0.957 and the IC50 was over 20 µM. In the case of “M14 (melanoma, adherent, top dose 20 µM)”, the AUC is reported as 0.986 and the IC50 is reported as over 20 µM. “MC-IXC (neuroblastoma, adherent, top dose 20 µM)” was tested, and the AUC was 0.991 and the IC50 was over 20 µM. In the case of “AsPC-1 (pancreas, adherent, top dose 20 µM)”, the AUC is reported as 0.967 and the IC50 is reported as over 20 µM. Work on “ROS-50 (B-cell leukaemia, suspension, top dose 20 µM)” yielded an AUC of 0.95 and an IC50 of over 20 µM. For “HCC1143 (breast, adherent, top dose 20 µM)”, the AUC was 0.979 and the IC50 was over 20 µM. For “ES4 (Ewing sarcoma, adherent, top dose 20 µM)”, the AUC was 0.974 and the IC50 was over 20 µM. Work on “COLO-679 (melanoma, adherent, top dose 20 µM)” yielded an AUC of 0.981 and an IC50 of over 20 µM. For “MV-4-11 (leukaemia, suspension, top dose 20 µM)”, the AUC was 0.736 and the IC50 was 5.05 µM. Cell Line “HT-1080 (fibrosarcoma, adherent, top dose 20 µM)” has an AUC of 0.981 and an IC50 of over 20 µM. “KM12 (large intestine, adherent, top dose 20 µM)” gave an AUC of 0.982 and an IC50 of over 20 µM. “SCC-4 (head and neck, adherent, top dose 20 µM)” gave an AUC of 0.984 and an IC50 of over 20 µM. “LCLC-103H (large cell lung carcinoma, adherent, top dose 20 µM)” showed an AUC of 0.974 and an IC50 of over 20 µM. Work on “HCT-15 (large intestine, adherent, top dose 20 µM)” yielded an AUC of 0.984 and an IC50 of over 20 µM. “NUGC-3 (stomach, adherent, top dose 20 µM)” gave an AUC of 0.98 and an IC50 of over 20 µM. “WM-115 (melanoma, adherent, top dose 20 µM)” was tested, and the AUC was 0.972 and the IC50 was over 20 µM. “SCC90 (head and neck, adherent, top dose 20 µM)” gave an AUC of 0.824 and an IC50 of 19.3 µM. “G-292 Clone A141B1 (osteosarcoma, adherent, top dose 20 µM)” showed an AUC of 0.957 and an IC50 of over 20 µM. For “no-10 (glioma, adherent, top dose 20 µM)”, the AUC was 0.924 and the IC50 was over 20 µM. With “KARPAS-299 (anaplastic large cell lymphoma, suspension, top dose 20 µM)” the AUC was 0.983 and the IC50 was over 20 µM. With “HCC-827 (lung adenocarcinoma, adherent, top dose 20 µM)” the AUC was 0.984 and the IC50 was over 20 µM. In the case of “NALM-6 (B-cell leukaemia, suspension, top dose 20 µM)”, the AUC is reported as 0.756 and the IC50 is reported as 5.86 µM. For “NCI-H2009 (lung adenocarcinoma, adherent, top dose 20 µM)”, the AUC was 0.987 and the IC50 was over 20 µM. “LB771-HNC (head and neck, adherent, top dose 20 µM)” gave an AUC of 0.973 and an IC50 of over 20 µM.
